# Measured values published in the supplement of paper PMC12355420.
# Counter-ions that a name gives are not always drawn. The list shows a part of the results. Cut-off read from the data, not from the text of the source: active = 0.5 or less and inactive = the rest. Most values come without repeats; read them as rough.
# Experiments:
# Details in all cases: 50 µM; 24 h
# [1] = test system: HeLa VPS33A reporter cells; experiment: relative cell viability (CellMask signal) vs DMSO (fraction of DMSO); higher = less cytotoxic;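 note: primary screen of an FDA-approved drug library in HeLa reporter cells in 96-well format, CellMask signal normalized to DMSO-treated wells set as 1, under 0.5 deemed highly cytotoxic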
# [2] = test system: HeLa VPS33A R498W KI + HA-SDC1-FLAG; experiment: relative GAG core protein HA-SDC1 amount per cell number vs DMSO (fraction of DMSO); higher = more SDC1 (GAG core protein);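 note: HA-SDC1 level read out by In-Cell Western staining with an anti-HA antibody against the N-terminal tag, screening FDA-approved library drugs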
# [3] = test system: HeLa VPS33A KO + NLuc-VPS33A R498W; experiment: relative mutant VPS33A R498W amount (NanoLuc luminescence) vs DMSO (fraction of DMSO); HeLa model of a glycosaminoglycan (GAG) storage disease; KI is knock-in and KO knock-out; SDC1 is syndecan 1; higher = higher mutant VPS33A level;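 note: screen of an FDA-approved drug library, NanoLuc luminescence read after lysing the treated cells, taken as a measure of mutant VPS33A protein stability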
SMILES,relative cell viability [1],relative GAG core protein HA-SDC1 amount per cell number [2],relative mutant VPS33A R498W amount [3]
NS(=O)(=O)c1cc(C(=O)O)c(NCc2ccco2)cc1Cl [Furosemide],1.2,inactive: 1.16,0.817
Nc1nc2ccc(OC(F)(F)F)cc2s1 [Riluzole],0.877,active: 0.387,0.389
CN(C)CCC=C1c2ccccc2COc2ccccc21 [Doxepin (hydrochloride)],0.93,inactive: 0.633,0.788
O=c1[nH]c(=O)n([C@H]2C[C@H](O)[C@@H](CO)O2)cc1C(F)(F)F [Triflurdine (Viroptic)],1.54,inactive: 0.87,0.949
CC(=O)[C@@]1(O)CC[C@H]2[C@@H]3C[C@H](C)C4=CC(=O)C=C[C@]4(C)[C@@]3(F)[C@@H](O)C[C@@]21C [Fluorometholone],1,inactive: 1.14,1.37
Cc1noc(NS(=O)(=O)c2ccc(N)cc2)c1C [Sulfisoxazole],0.97,inactive: 0.907,1.26
NC1=NCC2c3ccccc3Cc3ccccc3N12 (stereo not drawn) [Epinastine HCl],0.915,inactive: 0.611,0.76
Cn1c(=O)cc(N2CCC[C@@H](N)C2)n(Cc2ccccc2C#N)c1=O [Alogliptin (SYR-322)],1.27,inactive: 0.837,0.916
C[C@@](Cc1ccc(O)c(O)c1)(NN)C(=O)O [Carbidopa],1.05,inactive: 0.79,3.43
CC(=O)N[C@@H](CS)C(=O)O [Acetylcysteine],1.43,inactive: 1.13,2.97
CCCCCCCCCCCCCCCC(=O)OC [Palmitic Acid methyl ester],0.974,inactive: 0.808,1.41
